Measured values: the supplement of paper PMC3334620
Whole data set: some 33,000 sequences, median “E-score (-0.5 to 0.5)” near -0.035, cut for the highest 2% near 0.35. Some of the results follow.

Each sequence was assayed against T1, Pdr3 (UniProt P33200) (assay: PBM E-score (8-mer binding enrichment) (E-score (-0.5 to 0.5)); higher = stronger / more preferred TF binding; most listed sequences are background and not binding sites). Conditions: protein concentration: 200 nM; construct: GST-full length.
T1 sequence: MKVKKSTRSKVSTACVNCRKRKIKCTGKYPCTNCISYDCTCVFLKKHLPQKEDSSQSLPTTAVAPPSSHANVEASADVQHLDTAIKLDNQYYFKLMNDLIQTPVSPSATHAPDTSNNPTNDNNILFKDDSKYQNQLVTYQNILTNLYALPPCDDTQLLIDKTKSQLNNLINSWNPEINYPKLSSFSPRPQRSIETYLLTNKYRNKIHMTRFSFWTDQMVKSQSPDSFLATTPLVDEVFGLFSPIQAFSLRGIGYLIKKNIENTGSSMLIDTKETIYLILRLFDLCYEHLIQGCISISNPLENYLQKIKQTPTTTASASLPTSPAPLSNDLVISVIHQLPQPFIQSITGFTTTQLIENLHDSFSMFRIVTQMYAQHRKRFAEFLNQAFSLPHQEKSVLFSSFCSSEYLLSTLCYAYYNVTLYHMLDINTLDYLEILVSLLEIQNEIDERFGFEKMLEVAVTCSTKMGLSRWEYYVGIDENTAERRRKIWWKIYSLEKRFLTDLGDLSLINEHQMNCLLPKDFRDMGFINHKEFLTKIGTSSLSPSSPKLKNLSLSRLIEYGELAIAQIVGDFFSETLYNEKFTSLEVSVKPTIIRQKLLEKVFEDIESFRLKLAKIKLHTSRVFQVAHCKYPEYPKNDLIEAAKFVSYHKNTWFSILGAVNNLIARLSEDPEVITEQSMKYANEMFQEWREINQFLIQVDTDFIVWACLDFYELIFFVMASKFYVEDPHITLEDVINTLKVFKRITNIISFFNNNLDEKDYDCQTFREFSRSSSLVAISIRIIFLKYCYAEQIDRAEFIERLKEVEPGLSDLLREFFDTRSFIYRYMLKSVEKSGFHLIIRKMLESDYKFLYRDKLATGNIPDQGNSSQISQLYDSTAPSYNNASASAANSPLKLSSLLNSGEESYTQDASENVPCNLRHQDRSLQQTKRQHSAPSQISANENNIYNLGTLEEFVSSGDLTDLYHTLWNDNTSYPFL
In short: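 The E-score, a modified Wilcoxon-Mann-Whitney statistic, was computed by the Universal PBM Analysis Suite for every ungapped eight-base word pooled with its reverse complement. Scans behind it were normalised with masliner after bound GST-tagged yeast transcription factors were detected with fluorescent anti-GST. The proteins, at about 100-200 nM, had been applied to universal all-10-mer Agilent arrays made double-stranded by primer extension.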

Row | Sequence | PBM E-score
1 | TAAATAGA | -0.179
2 | AGCGACTG | -0.227
3 | CAGGAGCA | -0.0699
4 | GCGGCCGA | 0.222
5 | CATCGTCC | 0.0726
6 | CGTGGTGC | -0.0695
7 | ATTGGTGA | -0.193
8 | GGATGAGA | -0.0152
9 | GAGTTCAA | -0.113
10 | CCACATGC | -0.0304
11 | ATTACACA | -0.0105
12 | AGGCGATC | -0.177
13 | AAGATCCC | 0.013
14 | ACCGCGAT | 0.177
15 | AGGAATCG | 0.116
16 | CCGAGCGG | 0.274
17 | AGCCTCAG | -0.0761
18 | GTCATTTA | -0.254
19 | CATGGTGC | -0.157
20 | ACTTAGGG | -0.0922
21 | CGGTTTGC | 0.124
22 | AAAGATTG | -0.177
23 | CTGAATCC | 0.0967
24 | GGGCGGCA | 0.193
25 | AGTGTACC | -0.188

Row | Sequence | PBM E-score
26 | CCGATGAA | 0.178
27 | TAGCCCGA | 0.00326
28 | GCCGGCGC | 0.372
29 | CTGGTTCC | 0.264
30 | CTTTTTTC | 0.00094
31 | AGTGCGCA | 0.177
32 | CAGGAGCC | -0.121
33 | ACTACGAT | -0.0892
34 | ATGCGCCG | 0.262
35 | AGGTTGGC | -0.0851
36 | GTGGCACA | -0.194
37 | ATTAAAAC | -0.0309
38 | GCGCCAAC | 0.0994
39 | CGCGGGAG | 0.279
40 | TCTTCTCA | 0.111
41 | ACCAGAGT | -0.273
42 | AGAGTCCT | -0.133
43 | GATCCTGC | -0.00469
44 | CCCGAAGC | 0.175
45 | TACTGCCA | -0.0397
46 | CACTTATG | 0.0429
47 | GACCCAGA | 0.0239
48 | CAATTCCG | 0.435
49 | GACAGACC | -0.116
50 | AACAGACA | 0.157

Row | Sequence | PBM E-score
51 | AGATGCAA | -0.194
52 | AACAGCAG | 0.0785
53 | ACACCTTA | -0.104
54 | ATGCGCTC | -0.0721
55 | TGATTCCA | -0.054
56 | ACATAAGA | -0.0601
57 | ATTGTCGA | 0.0994
58 | AATGCAGG | 0.00441
59 | CACATGTC | 0.00635
60 | ATCACGAC | -0.105
61 | AACAATAG | -0.174
62 | CTGATCAG | 0.0843
63 | CGTATCAA | -0.0785
64 | GCACTTGA | -0.138
65 | AGATTCTC | 0.00017
66 | AACTGAAA | -0.119
67 | CCCAAGAC | -0.147
68 | CTCTCGCA | -0.212
69 | CATCTTCA | -0.217
70 | CAGAGATG | -0.184
71 | CCTGACTC | -0.115
72 | AGACCTTC | -0.102
73 | GCCCATCA | -0.109
74 | TCAATTGA | 0.139
75 | CCAGCGCG | 0.105

Row | Sequence | PBM E-score
76 | CATCGGTC | 0.0314
77 | GCAAGAAC | -0.0844
78 | GCGCCCGC | 0.0841
79 | GCGATCCC | 0.135
80 | ACTGAGAT | -0.221
81 | AACTAAAG | -0.189
82 | AGGGAACA | -0.0421
83 | TACGCATA | -0.126
84 | CTTGTCGC | 0.118
85 | TATCGAAA | 0.0199
86 | CAGGATTA | -0.0573
87 | GTATCAAC | 0.15
88 | CGAGCACC | 0.0866
89 | ACGACGAT | 0.119
90 | AAATATGG | -0.00786
91 | CTTGGGCC | -0.0633
92 | ATCAAGGG | 0.0172
93 | GCTCGCAC | 0.0918
94 | AAGTCAAA | -0.0991
95 | TGAGGACA | -0.184
96 | AAGCACGG | 0.104
97 | AAACATTA | -0.0733
98 | CCCACAGG | -0.137
99 | CCGCTTAG | 0.138
100 | CGGCCGGA | 0.396

Row | Sequence | PBM E-score
101 | TCTAACCA | -0.174
102 | CCTACAGC | -0.0513
103 | GAGCTCGA | 0.0764
104 | ATGCCCTC | -0.0557
105 | CTACAGAA | -0.154
106 | CCTTTGTC | -0.167
107 | ATCATCGC | -0.0145
108 | CAGAAATA | -0.00397
109 | AACGGCAC | -0.0354
110 | CTCCGAAG | 0.311
111 | AATTTTTG | -0.28
112 | AATCGTGG | -0.0183
113 | CCCTCACG | -0.134
114 | GCATGCCC | 0.166
115 | GGGTTGAC | 0.0502
116 | AAAAGGAG | -0.133
117 | AGACGACG | 0.0264
118 | ATCCAGTA | -0.0836
119 | CCCTTGTA | -0.196
120 | TAGGCACA | -0.224
121 | GTGATTTA | 0.163
122 | TCCGGGAA | 0.386
123 | CAGAGATC | -0.0206
124 | AGTACTAA | -0.085
125 | AAGTTCCT | 0.0364

Row | Sequence | PBM E-score
126 | AAGACACG | 0.0223
127 | AGTCCGTC | 0.259
128 | AGATTCCA | 0.0602
129 | ATGTTCAA | 0.106
130 | CGTGGTTA | -0.275
131 | CCGCCTTA | -0.0967
132 | ACAATGCA | 0.0617
133 | CAGGTTGG | -0.0735
134 | CCGCACGG | 0.279
135 | CGAAAGCC | -0.105
136 | TATATGAA | 0.00892
137 | GAGGTATA | -0.0622
138 | ACGATGCA | 0.0111
139 | ATAGTAGA | -0.0178
140 | ACTGTTGA | -0.141
141 | AGTATCTG | -0.157
142 | CATCCAAG | 0.00399
143 | GCTAGTTA | -0.0442
144 | CCTTCAAG | -0.0814
145 | AGCACGAT | -0.0278
146 | AAGGGTAG | -0.15
147 | AGCGCGGA | 0.331
148 | CTTTGCCC | -0.17
149 | ACGCACTA | -0.0824
150 | ATGTATGG | -0.269

Row | Sequence | PBM E-score
151 | CCCCTGAA | 0.0189
152 | AGACCCCC | -0.271
153 | ATCTATTA | 0.147
154 | ATTCTATG | -0.0254
155 | AGGATATG | -0.0369
156 | ATACCGAA | 0.101
157 | TGAACAAA | 0.146
158 | CAGTCTGG | -0.27
159 | ATACGGGC | 0.00646
160 | GCAGAATA | -0.0373
161 | CAACTCAC | -0.0155
162 | ACGAGCCC | -0.0654
163 | AAACGTAT | 0.0149
164 | ACTGGCAA | -0.123
165 | ACCGTAAA | -0.0635
166 | GCGCAAAA | 0.0314
167 | AAATGTGG | 0.0508
168 | AGGCGGCC | 0.0632
169 | AGGTCGAC | 0.0695
170 | ACTTGCAC | -0.0441
171 | AGACCACC | -0.229
172 | AAGTTCAT | 0.115
